{
  "source": "PubChem BioAssay (NCI)",
  "assay_in_all_cases": "NCI tumour cell line growth inhibition, 48 h",
  "key": {"[1]": {"tested_on": "HCT-116 colon"}, "[2]": {"tested_on": "KM12 colon"}, "[3]": {"tested_on": "HT29 colon"}, "[4]": {"tested_on": "SNB-19 CNS"}, "[5]": {"tested_on": "OVCAR-8 ovarian"}, "[6]": {"tested_on": "EKVX NSCLC"}, "[7]": {"tested_on": "NCI-H226 lung"}, "[8]": {"tested_on": "HOP-62 NSCLC"}, "[9]": {"tested_on": "MDA-N"}, "[10]": {"tested_on": "HCC-2998 colon"}, "[11]": {"tested_on": "UACC-62 melanoma"}, "[12]": {"tested_on": "SNB-75 CNS"}, "[13]": {"tested_on": "U251 CNS"}, "[14]": {"tested_on": "ACHN renal"}, "[15]": {"tested_on": "OVCAR-4 ovarian"}, "[16]": {"tested_on": "M14 melanoma"}, "[17]": {"tested_on": "MDA-MB-435"}, "[18]": {"tested_on": "PC-3 prostate"}, "[19]": {"tested_on": "SK-MEL-5 melanoma"}, "[20]": {"tested_on": "DU-145 prostate"}, "[21]": {"tested_on": "UACC-257 melanoma"}, "[22]": {"tested_on": "SF-268 CNS"}, "[23]": {"tested_on": "LOX IMVI melanoma"}, "[24]": {"tested_on": "TK-10 renal"}, "[25]": {"tested_on": "NCI/ADR-RES ovarian"}, "[26]": {"tested_on": "P388/ADR leukemia"}, "[27]": {"tested_on": "A549 NSCLC"}, "[28]": {"tested_on": "BT-549 breast"}, "[29]": {"tested_on": "RXF 393 renal"}, "[30]": {"tested_on": "MOLT-4 leukemia"}, "[31]": {"tested_on": "RPMI-8226 leukemia"}, "[32]": {"tested_on": "MALME-3M melanoma"}, "[33]": {"tested_on": "SF-539 CNS"}, "[34]": {"tested_on": "HOP-92 NSCLC"}, "[35]": {"tested_on": "COLO 205 colon"}, "[36]": {"tested_on": "OVCAR-3 ovarian"}, "[37]": {"tested_on": "NCI-H522 lung"}, "[38]": {"tested_on": "SW-620 colon"}, "[39]": {"tested_on": "HL-60(TB) leukemia"}, "[40]": {"tested_on": "NCI-H460 lung"}, "[41]": {"tested_on": "SF-295 CNS"}, "[42]": {"tested_on": "SK-MEL-2 melanoma"}, "[43]": {"tested_on": "NCI-H23 lung"}, "[44]": {"tested_on": "IGROV1 ovarian"}, "[45]": {"tested_on": "SK-MEL-28 melanoma"}, "[46]": {"tested_on": "SK-OV-3 ovarian"}},
  "note": "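Tested at 5 concentrations; 48 h exposure; 96-well plates; endpoints linearly interpolated, else capped at highest concentration. Here, GI50 denotes the concentration required for 50% inhibition of growth.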 Not every entry of the source has a single result; some have several. The list is limited to them. An entry can have further records. For some assays here: Records of one sample usually come from different ranges of test concentrations, not given here; a value can be the end of its range.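 TGI: total growth inhibition.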 For some assays here: Values given together are repeated measurements across runs, samples, wells, individuals or studies. A tag in brackets gives the origin of a value. A, B and so on number the origins entry by entry.",
  "data": [
    {"molecule": "CC(C)CCCCCCCCCCCCC(=O)NCC(=O)NC1C(O)C(O)C(Nc2ncnc3nc[nH]c23)OC1C(O)CO", "note": "(stereo unspecified)", "values": [
      {"measurement": "GI50", "setting": "[1]", "result": "< 0.01 nM [1 test] and 5 nM [mean of 2 tests]"},
      {"measurement": "TGI", "setting": "[1]", "result": "0.129 nM, 25.1 nM, 6.91 nM"},
      {"measurement": "GI50", "setting": "[2]", "result": "< 0.01 nM [1 test] and 5 nM [mean of 3 tests]"},
      {"measurement": "GI50", "setting": "[3]", "result": "< 0.01 nM [1 test] and 5 nM [mean of 2 tests]"},
      {"measurement": "GI50", "setting": "[4]", "result": "< 0.01 nM [1 test] and 5 nM [mean of 3 tests]"},
      {"measurement": "GI50", "setting": "[5]", "result": "< 0.01 nM [1 test] and 5 nM [mean of 4 tests]"},
      {"measurement": "TGI", "setting": "[5]", "result": "1.09 nM, 52.6 nM, 10.9 nM"},
      {"measurement": "GI50", "setting": "[6]", "result": "< 0.01 nM [1 test] and 5 nM [mean of 3 tests]"},
      {"measurement": "GI50", "setting": "[7]", "result": "< 0.01 nM [1 test] and 5 nM [mean of 3 tests]"},
      {"measurement": "TGI", "setting": "[7]", "result": "< 0.01 nM, 10.5 nM, 5.8 nM"},
      {"measurement": "TGI", "setting": "[8]", "result": "< 0.01 nM and 3.35 nM"},
      {"measurement": "TGI", "setting": "[9]", "result": "22.8 nM and 564 nM"},
      {"measurement": "TGI", "setting": "[10]", "result": "0.446 nM and 4.79 nM"},
      {"measurement": "TGI", "setting": "[11]", "result": "< 0.01 nM and 3.48 nM"},
      {"measurement": "TGI", "setting": "[12]", "result": "< 0.01 nM and 3.66 nM"},
      {"measurement": "GI50", "setting": "[13]", "result": "< 0.01 nM [1 test] and 5 nM [mean of 3 tests]"},
      {"measurement": "TGI", "setting": "[13]", "result": "< 0.01 nM, 7.3 nM, 7.39 nM"},
      {"measurement": "TGI", "setting": "[14]", "result": "1.69 nM and 608 nM"},
      {"measurement": "TGI", "setting": "[15]", "result": "0.0426 nM and 26.7 nM"},
      {"measurement": "TGI", "setting": "[16]", "result": "4.11 nM and 334 nM"},
      {"measurement": "TGI", "setting": "[17]", "result": "17.5 nM and 494 nM"},
      {"measurement": "TGI", "setting": "[18]", "result": "13.6 nM and 376 nM"},
      {"measurement": "GI50", "setting": "[19]", "result": "< 0.01 nM [1 test] and 5 nM [mean of 3 tests]"},
      {"measurement": "TGI", "setting": "[19]", "result": "2.06 nM, 23.1 nM, 13.2 nM"},
      {"measurement": "TGI", "setting": "[20]", "result": "0.0119 nM and 447 nM"},
      {"measurement": "GI50", "setting": "[21]", "result": "< 0.01 nM [1 test] and 5 nM [mean of 3 tests]"},
      {"measurement": "TGI", "setting": "[21]", "result": "< 0.01 nM, 14.7 nM, 10.3 nM"},
      {"measurement": "GI50", "setting": "[22]", "result": "< 0.01 nM [1 test] and 5 nM [mean of 2 tests]"},
      {"measurement": "TGI", "setting": "[22]", "result": "0.0167 nM, 67.4 nM, 38.1 nM"},
      {"measurement": "GI50", "setting": "[23]", "result": "< 0.01 nM and 15.1 nM"},
      {"measurement": "TGI", "setting": "[23]", "result": "< 0.01 nM, 35.6 nM, 2.59 µM"},
      {"measurement": "TGI", "setting": "[24]", "result": "2.26 nM and 508 nM"},
      {"measurement": "GI50", "setting": "[25]", "result": "< 0.01 nM [1 test] and 5 nM [mean of 4 tests]"},
      {"measurement": "TGI", "setting": "[26]", "result": "< 18.8 nM and 15.9 µM"},
      {"measurement": "GI50", "setting": "[27]", "result": "< 0.01 nM [1 test] and 5 nM [mean of 4 tests] and 0.463 nM [mean of 5 tests]"},
      {"measurement": "TGI", "setting": "[28]", "result": "6.61 nM and 515 nM"},
      {"measurement": "TGI", "setting": "[29]", "result": "< 0.01 nM and 13.5 nM"},
      {"measurement": "GI50", "setting": "[30]", "result": "< 0.01 nM [1 test] and 5 nM [mean of 4 tests]"},
      {"measurement": "GI50", "setting": "[31]", "result": "< 0.01 nM [1 test] and 5 nM [mean of 3 tests]"},
      {"measurement": "TGI", "setting": "[31]", "result": "2.21 nM, 2.49 nM, 108 nM"},
      {"measurement": "GI50", "setting": "[32]", "result": "< 0.01 nM [1 test] and 5 nM [mean of 4 tests]"},
      {"measurement": "GI50", "setting": "[33]", "result": "< 0.01 nM [1 test] and 5 nM [mean of 3 tests]"},
      {"measurement": "TGI", "setting": "[33]", "result": "< 0.01 nM, < 20.8 nM, 6.06 nM"},
      {"measurement": "TGI", "setting": "[34]", "result": "< 0.01 nM and 1.77 nM"},
      {"measurement": "GI50", "setting": "[35]", "result": "< 0.01 nM [1 test] and 5 nM [mean of 3 tests] and 0.643 nM [mean of 5 tests]"},
      {"measurement": "GI50", "setting": "[36]", "result": "< 0.01 nM [1 test] and 5 nM [mean of 4 tests]"},
      {"measurement": "GI50", "setting": "[37]", "result": "< 0.01 nM [1 test] and 5 nM [mean of 2 tests]"},
      {"measurement": "TGI", "setting": "[37]", "result": "< 0.01 nM, 8.81 nM, 7.88 nM"},
      {"measurement": "TGI", "setting": "[38]", "result": "9.69 nM [mean of 3 tests] and 103 nM [mean of 5 tests]"},
      {"measurement": "GI50", "setting": "[39]", "result": "< 0.01 nM [1 test] and 5 nM [mean of 3 tests]"},
      {"measurement": "TGI", "setting": "[39]", "result": "1.63 nM and 50 nM"},
      {"measurement": "GI50", "setting": "[40]", "result": "< 0.01 nM [1 test] and 5 nM [mean of 4 tests]"},
      {"measurement": "TGI", "setting": "[40]", "result": "1.05 nM, 14.8 nM, 7.34 nM"},
      {"measurement": "GI50", "setting": "[41]", "result": "< 0.01 nM [1 test] and 5 nM [mean of 3 tests]"},
      {"measurement": "TGI", "setting": "[41]", "result": "< 0.01 nM, 35.3 nM, 5.95 nM"}
    ]},
    {"molecule": "CCCCCCCCCC[C@H](O)[C@H](O)CC[C@@H](O)[C@H]1CC[C@@H]([C@H]2CC[C@H](CCCCCCC[C@@H](O)CC3=C[C@H](C)OC3=O)O2)O1", "values": [
      {"measurement": "TGI", "setting": "[4]", "result": "5.67 µM and > 100 µM"},
      {"measurement": "TGI", "setting": "[6]", "result": "7.15 µM and > 100 µM"},
      {"measurement": "TGI", "setting": "[7]", "result": "8.07 µM and > 100 µM"},
      {"measurement": "TGI", "setting": "[42]", "result": "4.29 µM and 89.6 µM"},
      {"measurement": "TGI", "setting": "[43]", "result": "9.32 µM and > 100 µM"},
      {"measurement": "TGI", "setting": "[17]", "result": "4.84 µM and > 100 µM"},
      {"measurement": "TGI", "setting": "[44]", "result": "6.21 µM and 72.8 µM"},
      {"measurement": "TGI", "setting": "[28]", "result": "2.08 µM and > 100 µM"}
    ]},
    {"molecule": "COc1ccc([C@@]23Oc4cc(OC)cc(OC)c4[C@]2(O)[C@H](O)[C@H](C(N)=O)[C@H]3c2ccccc2)cc1", "values": [
      {"measurement": "TGI", "setting": "[5]", "result": "< 43 nM [sample A] and 562 nM [sample B]"},
      {"measurement": "TGI", "setting": "[45]", "result": "> 39.5 µM [sample A] and 71.2 nM [sample B]"},
      {"measurement": "TGI", "setting": "[15]", "result": "21.6 µM [sample A] and 200 nM [sample B]"},
      {"measurement": "TGI", "setting": "[18]", "result": "97.7 nM [sample A] and 1.63 µM [sample B]"},
      {"measurement": "TGI", "setting": "[27]", "result": "> 51.2 µM [sample A] and 1.04 µM [sample B]"},
      {"measurement": "TGI", "setting": "[31]", "result": "1.58 µM [sample A] and 127 nM [sample B]"},
      {"measurement": "TGI", "setting": "[38]", "result": "> 100 µM [sample A] and 221 nM [sample B]"},
      {"measurement": "TGI", "setting": "[46]", "result": "> 100 µM [sample A] and 434 nM [sample B]"}
    ]}
  ]
}
